In article PMC9984488:
These are yes or no findings as the source states them, for the method shown. In cells and extracts the contact can be indirect. Some entries that bind do so weakly or less than the wild type.

The chains behind the UniProt entries cited, without tags or fusion partners. Where a name states a change or a piece, a line headed by the entry shows the natural chain unless it says otherwise.
UniProt Q9UJU6: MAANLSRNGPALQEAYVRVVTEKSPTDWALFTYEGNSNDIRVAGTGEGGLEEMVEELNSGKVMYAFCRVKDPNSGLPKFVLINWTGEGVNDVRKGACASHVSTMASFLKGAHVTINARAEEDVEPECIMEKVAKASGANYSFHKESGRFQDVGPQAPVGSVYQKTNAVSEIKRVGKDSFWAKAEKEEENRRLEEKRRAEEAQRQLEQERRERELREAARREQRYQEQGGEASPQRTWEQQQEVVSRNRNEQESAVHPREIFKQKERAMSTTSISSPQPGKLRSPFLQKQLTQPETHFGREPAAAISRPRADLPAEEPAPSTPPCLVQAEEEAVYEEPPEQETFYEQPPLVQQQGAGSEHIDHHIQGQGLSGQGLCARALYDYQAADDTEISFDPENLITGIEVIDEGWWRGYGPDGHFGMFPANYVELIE

What was measured:
[1] = biological target: GST-HIP-55 (human) (UniProt Q9UJU6); test: pull-down; GST pull-down from lysates of transfected HEK293A cells; Glutathione-Sepharose 4B, 4 °C 4 h, three washes with lysis buffer (1% NP-40, 150 mM NaCl, 100 mM Hepes); immunoblotting
[2] = biological target: GST-HIP-55AA (S269A/T291A-mutated HIP-55) (human) (UniProt Q9UJU6); test: as above

Row | binding [1] | binding [2] | Binder
1 | binds | no binding | 14-3-3τ (protein, UniProt P27348 1-245) MEKTELIQKAKLAEQAERYDDMATCMKAVTEQGAELSNEERNLLSVAYKNVVGGRRSAWRVISSIEQKTDTSDKKLQLIKDYREKVESELRSICTTVLELLDKYLIANATNPESKVFYLKMKGDYFRYLAEVACGDDRKQTIDNSQGAYQEAFDISKKEMQPTHPIRLGLALNFSVFYYEILNNPELACTLAKTAFDEAIAELDTLNEDSYKDSTLIMQLLRDNLTLWTSDSAGEECDAAEGAEN
2 | no binding |  | 14-3-3γ/K50E mutant (protein, UniProt P61981 1-247) MVDREQLVQKARLAEQAERYDDMAAAMKNVTELNEPLSNEERNLLSVAYENVVGARRSSWRVISSIEQKTSADGNEKKIEMVRAYREKIEKELEAVCQDVLSLLDNYLIKNCSETQYESKVFYLKMKGDYYRYLAEVATGEKRATVVESSEKAYSEAHEISKEHMQPTHPIRLGLALNYSVFYYEIQNAPEQACHLAKTAFDDAIAELDTLNEDSYKDSTLIMQLLRDNLTLWTSDQQDDDGGEGNN
